Measured values taken from PubChem BioAssay AID504466 (National Center for Advancing Translational Sciences (NCATS), 2011).
Out of some 330,000 compounds screened, about 4,200 (1.3%) were called active. Inconclusive results, whose numbers are uncertain, are shown with a selection of clear calls. Calls follow the shape of the dose curve; as a rule, active = well fitted activation curve with a large enough effect; inconclusive = small, poorly fitted or top-dose-only effect; inactive = no such curve, though single readings can be large or run the other way. Potencies beside an inconclusive call are fits to weak or partial responses and may not hold up.
Potency is read from the fitted curve at half-maximal effect; tags tell the direction and shape of the fitted curve.

Assay: qHTS screen for small molecules that induce genotoxicity in human embryonic kidney (HEK293T) cells expressing luciferase-tagged ELG1; also: nearly all actives have a fitted effect of over 60% in size; as to activity change, positive = activation: % of control where 0% means no effect
Settings: HEK293T ELG1-luciferase reporter, luminescence, 16 h; series mostly up to 46 µM; activity change, positive = activation: at the top concentration
Method in brief: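 Luminescence read-out: rising ELG1-luciferase signal, reflecting elevated ELG1 protein under genetic stress, flags genotoxic compounds. Cells were treated for 16 hr at 37 °C before ONE-Glo detection.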
In the case of `CC(=O)N(C)Cc1ccc(C(=O)CCl)cc1`, the Potency is reported as inconclusive: 23.1 µM [activator, single point]. For `Cc1nc(Nc2ccccc2C(F)(F)F)sc1C(=O)N(C)C`, the Potency was inconclusive: 20.6 µM [activator, partial curve, poor fit]. In the case of `Cc1ccc(C(=O)CCC(=O)NN2C(=O)NC3(CCCCC3)C2=O)cc1`, the “activity change, positive = activation” value is reported as inactive: 3.59%. With `COc1ccc(OC)c(N(C(=O)c2ccco2)C(C(=O)NC2CCCC2)c2cc(OC)c(OC)c(OC)c2)c1` (centres undefined) the “activity change, positive = activation” value was inactive: 0%. In the case of `O=C(N/N=C/c1ccc2c(c1)OCO2)c1ccccn1`, the Potency is reported as inconclusive: 1.3 µM [activator, partial curve]. With `O=C(O)c1ccc2c(c1)ncn2C1CCCC1` the Potency was inconclusive: 25.9 µM [activator, partial curve, poor fit]. For `Cc1ccc(NC(=O)CSc2nnc(C)c(=O)n2N)cc1Cl`, the “activity change, positive = activation” value was inactive: 4.65%. For `Fc1ccc(N2CCN(c3cnc4ccccc4n3)CC2)cc1`, the Potency was inconclusive: 8.2 µM [activator, partial curve]. With `Cc1nn(-c2ccccc2)c(C)c1NC(=O)COC(=O)CC(C)c1ccccc1` (centres undefined) the “activity change, positive = activation” value was inactive: 1.28%. With `CCOC(=O)c1cc(S(=O)(=O)NC2CCN(C(=O)OCC)CC2)cn1C` the “activity change, positive = activation” value was inactive: -5.78%. With `N#Cc1c(NC(=O)c2nc3ncccn3n2)sc2c1CCCCC2` the Potency was active: 2.31 µM. With `O=C(CCc1nnc(-c2ccc3c(c2)OCO3)o1)N1CCC(c2ccc(F)cc2)C1` (centres undefined) the Potency was inconclusive: 23.1 µM [activator, single point]. In the case of `O=C(c1cc(COc2ccc(F)cc2Cl)on1)N1CCCCCC1`, the Potency is reported as inconclusive: 8.2 µM [activator, partial curve]. In the case of `O=C(NC1CC2CCC1C2)c1ccc(CN2CCOCC2)cc1` (centres undefined), the Potency is reported as inconclusive: 16.4 µM [activator, single point]. For `CCOC(=O)C1CCN(c2ncnc3c(C)csc23)CC1`, the Potency was inconclusive: 18.3 µM [activator, partial curve, poor fit]. For `Cc1c(C)n(CCO)c2ncnc(Nc3ccc(F)cc3)c12`, the Potency was inconclusive: 20.6 µM [activator, single point]. With `Cc1cccc(NC(=S)N2N=CCC2c2ccccc2)c1` (centres undefined) the Potency was inconclusive: 29.1 µM [activator, single point]. With `O=C(CSc1nc2ccsc2c(=O)n1NC(=O)c1ccccc1)NCc1ccco1` the “activity change, positive = activation” value was inactive: 7.24%. With `Cc1cc(C(=O)COc2cccnc2[N+](=O)[O-])c(C)n1-c1ccccc1` the “activity change, positive = activation” value was inactive: 7.19%. With `CS(=O)(=O)c1ccc2nc(NC(=O)c3cc(-c4ccccc4)nn3-c3ccccc3)sc2c1` the “activity change, positive = activation” value was inactive: -5.31%. In the case of `CCOc1ccc(C(=O)Nc2ccc(Cl)cn2)cc1Cl`, the Potency is reported as inconclusive: 4.11 µM [activator, full curve]. With `Cc1ccc(S(=O)(=O)N(C)C)cc1NC(=S)N1CCc2ccccc21` the “activity change, positive = activation” value was inactive: -13.5%. For `Cc1ccc(NC(=O)C(C)N=C2NS(=O)(=O)c3ccccc32)cc1F` (centres undefined), the Potency was inconclusive: 18.3 µM [activator, partial curve, poor fit]. With `O=C(Cc1ccccc1F)Nc1nc(-c2cccs2)cs1` the Potency was inconclusive: 18.4 µM [activator, partial curve, poor fit]. With `Cc1ccc(Nc2nc3ccccc3s2)cc1` the Potency was active: 7.31 µM. In the case of `O=C(CSc1ccc(-c2ccc(-n3cccn3)cc2)nn1)Nc1ccc([N+](=O)[O-])cc1`, the Potency is reported as active: 18.3 µM. With `O=[N+]([O-])c1ccc(CCNc2cccc3ccccc23)c([N+](=O)[O-])c1` the “activity change, positive = activation” value was inactive: 2.76%. In the case of `Clc1ccc(-c2noc(CN3CCCC3)n2)cc1`, the Potency is reported as active: 10 µM. With `Cc1cc(O)c(NC(=O)c2ccc(Br)o2)cc1C` the Potency was inconclusive: 8.2 µM [activator, partial curve, poor fit]. With `O=C(COC(=O)Cc1ccccc1F)Nc1ccc(SC(F)F)cc1` the “activity change, positive = activation” value was inactive: 0.1%. For `NNc1nc(-c2ccccc2)cs1`, the Potency was inconclusive: 18.3 µM [activator, partial curve, poor fit]. For `CCc1sc(C(C2C(=O)CC(C)(C)CC2=O)C2C(=O)CC(C)(C)CC2=O)cc1[N+](=O)[O-]`, the Potency was inconclusive: 32.6 µM [activator, partial curve, poor fit]. For `COCCNC(=O)Cn1nc(-c2ccc(C)cc2)ccc1=O`, the “activity change, positive = activation” value was inactive: -0.933%. With `O=C(N/N=C/c1cccnc1)c1ccccc1[N+](=O)[O-]` the “activity change, positive = activation” value was inactive: 2%. With `CCOc1ccc2nc(N3CCC(C(=O)Nc4nnc(CC)s4)CC3)sc2c1` the Potency was active: 11.6 µM. With `O=C(N/N=C/c1ccc(Cl)cc1Cl)c1cccc(F)c1` the Potency was inconclusive: 2.31 µM [activator, full curve]. With `O=C(NC1CCCCC1)c1ccc(CN2CCOCC2)cc1` the Potency was inconclusive: 23.1 µM [activator, single point]. For `CN(C)c1ccc(/C=N/Nc2nncc3ccccc23)cc1`, the Potency was active: 0.73 µM. In the case of `O=C(N/N=C/c1ccncc1)c1nc2ccccc2c(=O)[nH]1`, the Potency is reported as inconclusive: 23.1 µM [activator, partial curve, poor fit]. In the case of `NNC(=O)c1cn2ccccc2n1`, the “activity change, positive = activation” value is reported as inactive: 4.03%. For `COC(=O)c1cnn(-c2ccc(F)cc2F)c1/C=N/NC(N)=S`, the “activity change, positive = activation” value was inactive: -6.65%. With `Cc1sc(=NC(=O)c2ccco2)n(C)c1-c1ccc(F)cc1` the Potency was inconclusive: 2.91 µM [activator, full curve]. With `CCC(C)C(NC(=O)c1ccccc1NC(=O)c1ccccc1)C(=O)O` (centres undefined) the “activity change, positive = activation” value was inactive: -1.52%. In the case of `NS(=O)(=O)c1ccc(CNC(=O)c2cc(-c3ccccn3)nc3ccc(Cl)cc23)cc1`, the Potency is reported as inconclusive: 32.6 µM [activator, partial curve, poor fit]. In the case of `CCOC(=O)C1(Cc2cccc(OC)c2)CCCN(C(=O)CCc2cccnc2)C1` (centres undefined), the Potency is reported as inconclusive: 16.4 µM [activator, partial curve, poor fit]. For `CCCC(=O)Nc1ccc2c(c1)nc1n2CCSC1`, the Potency was inconclusive: 14.6 µM [activator, partial curve]. With `COc1ccc(C(=O)Nn2c(SCc3cccc([N+](=O)[O-])c3)nc3ccccc3c2=O)cc1` the Potency was active: 0.731 µM. For `CCOc1ccc2[nH]c3c(=O)n(CCc4ccc(OC)cc4)cnc3c2c1`, the Potency was inconclusive: 23.1 µM [activator, partial curve, poor fit]. In the case of `COc1ccc(/C=C/c2nc3ccccc3n2Cc2ccccc2OC)cc1`, the Potency is reported as inconclusive: 4.61 µM [activator, single point]. With `Nc1nc(N)nc(COc2ccccc2)n1` the Potency was inconclusive: 9.2 µM [activator, partial curve]. For `CCN1C(=O)N(c2cccc3ccccc23)C(C)=CC1(C)C`, the “activity change, positive = activation” value was inactive: -1.91%. For `C/C(=N\NC(=O)c1ccccc1O)c1ccc(NC(=O)Cc2ccccc2)cc1`, the “activity change, positive = activation” value was inactive: 8.84%. For `O=C(N/N=C/c1ccccc1OCc1ccccc1)c1cccnc1`, the “activity change, positive = activation” value was inactive: -1.55%. With `CCCCc1ccc(NC(=S)N2CCCC(CO)C2)cc1` (centres undefined) the Potency was inconclusive: 13 µM [activator, partial curve]. With `COc1ccccc1C(=O)NCC(=O)Nc1ccc2c(c1)CCC2` the Potency was inconclusive: 29.1 µM [activator, partial curve, poor fit]. With `Clc1ccc2nc(-c3ccc4c(c3)OCO4)cn2c1` the Potency was inconclusive: 0.366 µM [activator, full curve]. For `O=C(Cc1ccc(F)cc1)N/N=C/c1ccccn1`, the “activity change, positive = activation” value was inactive: 0.952%. With `CC(C)(C)c1ccc(/C=N/NC(=O)C2CCCC2)cc1` the Potency was inconclusive: 11.6 µM [activator, partial curve]. With `Nc1c(-c2ccc(Cl)cc2)nnn1-c1ccccc1` the Potency was inconclusive: 7.31 µM [activator, partial curve, poor fit]. In the case of `Cc1occc1C(=O)O/N=C(\N)c1ccc(Cl)cc1`, the Potency is reported as inconclusive: 13 µM [activator, single point]. With `C=CCN(C(=O)C1=NN(C2CCS(=O)(=O)C2)C(=O)CC1)c1nc(-c2ccc([N+](=O)[O-])cc2)cs1` (centres undefined) the “activity change, positive = activation” value was inactive: 12.5%. In the case of `Cc1nc2ccc(NC(=O)c3ccccc3)cc2s1`, the Potency is reported as inconclusive: 23.1 µM [activator, single point]. In the case of `COc1ccc(/C=C/C(=O)c2ccc[nH]2)c(OC)c1OC`, the Potency is reported as inconclusive: 20.6 µM [activator, single point]. With `Cc1cccc(OCC(=O)Nc2ccc(N3CCN(S(C)(=O)=O)CC3)cc2)c1C` the Potency was inconclusive: 16.4 µM [activator, single point]. With `Cc1nn(Cc2c(F)c(F)c(F)c(F)c2F)c(C)c1NC(=O)c1cccc(COc2ccccc2Cl)c1` the Potency was inconclusive: 0.82 µM [activator, full curve, poor fit]. In the case of `CC1CCc2c(sc(NC(=O)c3cccn3C)c2C(N)=O)C1` (centres undefined), the Potency is reported as inconclusive: 18.3 µM [activator, partial curve, poor fit]. In the case of `NC(=O)c1c(NC(=O)c2ccncc2)sc2c1CCCCCC2`, the “activity change, positive = activation” value is reported as inactive: -4.14%. In the case of `Cn1ccsc1=NC(=O)c1ccc(OC(F)(F)F)cc1`, the Potency is reported as inconclusive: 18.3 µM [activator, partial curve]. In the case of `CCn1c(CSc2nnc(-c3ccc4c(c3)OCO4)o2)nc2cc(S(=O)(=O)N(C)C)ccc21`, the “activity change, positive = activation” value is reported as inactive: -6.79%. With `O=C(N/N=C/c1ccccc1O)c1ccc2c(c1)OCO2` the Potency was active: 14.6 µM. With `Cc1cc(OC(=O)c2cccc(C(F)(F)F)c2)c([N+](=O)[O-])c(=O)[nH]1` the “activity change, positive = activation” value was inactive: 1.89%. With `Cc1ccc(C)c(NS(=O)(=O)c2ccc3c(c2)Cc2cc(S(=O)(=O)Nc4cc(C)ccc4C)ccc2-3)c1` the Potency was inconclusive: 32.6 µM [activator, partial curve, poor fit]. For `CNc1nnc(-c2cccc(N(C)C)c2)s1`, the Potency was active: 11.2 µM. With `COCCCNC(=O)/C(C#N)=C/c1cccc(NC(=O)c2ccccc2Cl)c1` the Potency was inconclusive: 25.9 µM [activator, partial curve, poor fit].
